The source gives no read counts; variants with many changes may rest on few reads.

To fix the notation:
B1: LINE1-full (parent)
chain: UACGUAGGUGGUUUUCCCCUGAUAGUGCUAAGGGGGCCUGGAAGUUUGGACUGGGCAGAGCUCAACACAGCGUGGCAAAGUGGCUGUGGCUAGACUGCCUCUCUGGAUUCCUCGUCACUCAGCAGGGCAUCUCUGAGAGAAAUGCC

The variants in this data set derive from B1. Put plainly: self-cleavage, relative activity (ratio to wild type); higher = more cleavage; in vitro, sequencing; the parent is a self-cleaving ribozyme.
As for U14C A22U A67G U87A U132C, the self-cleavage turned out to be 0.18.

As for U5A A69G U112C, the self-cleavage was found to be 0.84.

On to U26A G58A U73G A78G G86A U87A C113U A129G A138G, for which the self-cleavage worked out at 0.01.

As for U12G U15A G40U A64U A141G, the self-cleavage was determined as 0.44.

Turning to A50U C63U U85C U96A U108C, the self-cleavage worked out at 0.12.

Take U104C U108C A124U U143C: the self-cleavage was 2.63.

On to A2G A78G A138G, for which the self-cleavage is 1.5.

Consider U1A C19U U85C A117G U130C, for which the self-cleavage turned out to be 0.

Take U62A U108C G139A: the self-cleavage came out at 0.01.

U5C A50G A138U: the self-cleavage was determined as 0.26.

As to U9A U91A A92G, the self-cleavage came out at 0.

In the case of U39C U62A U91C, the self-cleavage was 0.18.

For the variant U1C U12G U47C G58A C71U, the self-cleavage came to 0.18.

Take G122A A124G A136G: the self-cleavage was 1.25.

As for A57G U62A A117G, the self-cleavage is 0.

For the variant A57G U115G U132C, the self-cleavage was 0.68.

Regarding G35A U62A A77G U81C, the self-cleavage came to 0.04.

With C17U A42G U46A, the self-cleavage was 1.19.

Consider A64U A121G A129G, for which the self-cleavage was found to be 0.51.

Take U73A U108C U130C: the self-cleavage is 1.84.

Take G32A C63U A94G U100C: the self-cleavage came out at 0.01.

Turning to A22G C37U U108C A140G, the self-cleavage amounted to 1.44.

Take U26G U73A U87C: the self-cleavage was determined as 0.17.

As for A77G U81A U96A, the self-cleavage was determined as 0.

Take A67G U81A U96A: the self-cleavage is 0.09.

Regarding C16U C18U G21A A50G G72A U102C, the self-cleavage stood at 1.03.

With U20C U81C C90U U115A A138G, the self-cleavage was 0.03.

Turning to A2G U15A U87C, the self-cleavage amounted to 0.05.

With U12G U47A C61U U62C U96G A140G, the self-cleavage amounted to 0.05.

As to C19U U87C U132C, the self-cleavage amounted to 0.22.

Take U45C A57G C68U U87A: the self-cleavage stood at 0.07.

For A30G G35U A59G A65G A129U, the self-cleavage came out at 0.18.

As for G40A A77G C128G, the self-cleavage was 1.52.

Take U85A A94G A124G: the self-cleavage is 0.08.

For U52A A57G U134A, the self-cleavage is 0.56.

For U13C U39A U115A U132C A141G, the self-cleavage is 2.18.

Turning to A24U C38U A138G, the self-cleavage was 1.79.

Take U14C A31G A136C: the self-cleavage worked out at 1.45.

Regarding U62C A64G A121G A142G, the self-cleavage came to 0.

On to U39C U45C A57G U85A U119C, for which the self-cleavage turned out to be 0.

Regarding G82A U112A A124G G125U, the self-cleavage is 1.15.

With C28G A92U A124C U143C, the self-cleavage worked out at 0.18.

Consider A31G U87A A94G A129U, for which the self-cleavage was 0.04.

Turning to U1C U62C G83A, the self-cleavage is 0.01.

Consider U47A A129U A136G, for which the self-cleavage came to 1.53.

Consider U52A U108C A121U, for which the self-cleavage was determined as 1.93.

Consider U12A A69G U104C A140G, for which the self-cleavage stood at 0.63.

Consider C18A U102C A142G, for which the self-cleavage amounted to 1.53.

On to U9C U62C A69U, for which the self-cleavage stood at 0.06.

Turning to G75A A78G C101G U108C, the self-cleavage was found to be 0.89.

Regarding U12G C95A C111U U143C, the self-cleavage was found to be 0.08.

For the variant C3U A50G A117U, the self-cleavage was 0.32.

With U39A G86A U143C, the self-cleavage was 0.1.

In the case of A77U U109C U134G, the self-cleavage stood at 0.32.

Turning to A24U A30G A78U A107G U108C A121U U134A, the self-cleavage stood at 0.

Turning to A67G U85A A107G A142G, the self-cleavage came to 0.24.

Consider U45C A94G U130C C145A, for which the self-cleavage is 0.77.

As for U5C U20A U62A, the self-cleavage was determined as 0.22.

In the case of A6G U13C U14C C66U A136U, the self-cleavage is 0.53.

Take A22G G72C C95U U109A: the self-cleavage came out at 0.17.

As to U81C U104C A129G, the self-cleavage was 0.

As to G36A A77G A129G, the self-cleavage was determined as 2.3.

Consider U1C U96C A136G, for which the self-cleavage is 0.38.

Turning to U12C U20A G35A G86U U87C, the self-cleavage was 0.07.

Consider U13C A50G U62C G126A A138U, for which the self-cleavage stood at 0.

Consider A2G A78G U87A U96C A124G, for which the self-cleavage stood at 0.

In the case of U15C U46C G58A A59G U85C, the self-cleavage is 0.22.

As to A69G U96C U134G, the self-cleavage turned out to be 0.84.

Turning to A2C U15A C17U G122U A140G, the self-cleavage is 0.78.

Turning to U9C U20A U26C, the self-cleavage was 1.28.

On to A22G U109A A136G, for which the self-cleavage is 1.95.

With U9C U20C G106A A107G, the self-cleavage was found to be 1.61.

As for A57U U112A U143C, the self-cleavage was 0.11.

U12C U20A A65U U96A: the self-cleavage turned out to be 0.03.

For the variant A78G A92G A94G, the self-cleavage is 0.

Consider A64U A78G A142G, for which the self-cleavage stood at 0.32.

U13C U23G A24G A107G: the self-cleavage is 0.

For the variant A65G U130C A138G, the self-cleavage amounted to 0.

Regarding U13C A64C A79U U85C U87A G125A G127U U134A, the self-cleavage was 0.04.

With A6G U12C U15C A31U A69U, the self-cleavage turned out to be 0.39.

Consider U20A U62C A64G U96C G105A, for which the self-cleavage amounted to 0.23.

In the case of U14A U15C U132G, the self-cleavage was 2.92.

For the variant U23C C99U U115C A138U, the self-cleavage is 1.39.

As for U81A U102A U143C, the self-cleavage is 2.13.

Consider U20A C38A A64G, for which the self-cleavage was determined as 0.19.

Turning to U9C U45C U73G G127A A138G, the self-cleavage turned out to be 2.67.

Turning to G41A A42U A94U, the self-cleavage was 0.1.

As to U13C C28A U81C U85C, the self-cleavage stood at 0.85.

Regarding U12C U20C U85C, the self-cleavage was determined as 0.63.

Regarding A22G A65G A67U A92G, the self-cleavage amounted to 0.34.

Turning to G7A A43G G60U C111U, the self-cleavage stood at 0.03.

Regarding U52G A59G U112C, the self-cleavage turned out to be 0.15.

Turning to U1C A2G U62A, the self-cleavage was 0.18.

As for G40U C71U A136G, the self-cleavage is 0.71.

Consider A24G G32A U100C U108C A138U, for which the self-cleavage stood at 0.51.

On to U62C A78G G114A, for which the self-cleavage was 0.02.

As for A22G U23C U115A U132C, the self-cleavage stood at 1.58.

As for U29C A78G A129U, the self-cleavage stood at 1.98.

For U87A U115A A129U, the self-cleavage was 0.03.

For U29C U45C A117U A124U U134C A142G, the self-cleavage was determined as 0.97.

U5A U15C G58A: the self-cleavage stood at 0.21.

Take U46C U85G U100C: the self-cleavage stood at 0.49.

As to U9A U12C C38U A59U A67U, the self-cleavage amounted to 0.47.

In the case of A22G C90G U143A, the self-cleavage was 0.14.

U39C A59U C84U C95G A117G A124U A129U U132C U134C: the self-cleavage worked out at 0.16.

As for G83C C101U C113U, the self-cleavage stood at 1.02.

For the variant G21A U39A U62C, the self-cleavage turned out to be 0.06.

Consider G97A U112A A129C A138G, for which the self-cleavage is 0.38.

For U52C A57G U119A, the self-cleavage stood at 0.49.

Regarding A31G A64G A141G, the self-cleavage came out at 0.44.

As to A24G A121U U132A, the self-cleavage turned out to be 2.3.

On to U14C A22G U23C A42G, for which the self-cleavage was 0.61.

As to A42G A79G A136G, the self-cleavage was found to be 0.85.

As to G74A G97A U100C U119C, the self-cleavage was determined as 0.2.

Regarding C3U U45C C68U, the self-cleavage came to 0.16.

Regarding U26A U45C C71U A121G, the self-cleavage came to 0.58.

On to U1C A6G A67G, for which the self-cleavage turned out to be 0.32.

For U14C A92U U130A, the self-cleavage was 1.32.

In the case of A117U U119C C123U, the self-cleavage came to 1.59.

Consider G127A U130C U134A, for which the self-cleavage is 0.98.

On to U14C A22G U46C G74A, for which the self-cleavage is 0.88.

As for U26C A77U C90G, the self-cleavage came to 0.05.

Turning to U13C A59G A92G A129G, the self-cleavage came out at 0.

With A22G A31C U45A U100C U102C U115A A141G, the self-cleavage stood at 2.

With U9A U20C U85C U108C A136G A142G, the self-cleavage is 0.

Take A67U U73A U100C: the self-cleavage came to 0.61.

As for A78G U81C U96C, the self-cleavage stood at 0.13.

Consider U47G G127U U143C, for which the self-cleavage was found to be 0.76.

Take G36U A43G U143C: the self-cleavage was 0.32.

Turning to U9G G49A U87C A107G U132C, the self-cleavage is 0.25.

On to U15C A30G A64U, for which the self-cleavage came out at 0.72.

With U13C U45C G127A, the self-cleavage was determined as 1.43.

As for U29A U104A U112C U134C, the self-cleavage was 1.06.

On to U15C U102C A142G, for which the self-cleavage worked out at 1.6.

Turning to A6G U29A U47A, the self-cleavage was 1.34.

For A31U G74A A94G G137A U143C, the self-cleavage was 0.46.

In the case of A77C A129G G137U, the self-cleavage worked out at 2.42.

For G54U A117U G126A, the self-cleavage worked out at 0.86.

Regarding A65G U109G A136U, the self-cleavage came out at 0.

For U20C A121G A138G, the self-cleavage was 1.16.

For the variant C3U U9C U52A, the self-cleavage was 0.9.

With U73A A94G A138G, the self-cleavage was 0.23.

Consider A2G C76G U130A, for which the self-cleavage turned out to be 1.57.

As for A59G A69U U87A C116A U119A A138G U143A, the self-cleavage was 0.01.

On to U12C G36A A79G U85A, for which the self-cleavage was 0.14.

With U47C A57G U109A, the self-cleavage worked out at 0.84.

As for A42G A50G U85A A107C, the self-cleavage is 0.

Turning to G36A A77U U115C A117U A124U, the self-cleavage came out at 1.21.

On to U15C U29C U91C A129C, for which the self-cleavage was found to be 0.

For U29C G125U A136G, the self-cleavage worked out at 1.54.

On to C38U U62C C116U A140G, for which the self-cleavage stood at 0.04.

Consider U13C A117U A129U, for which the self-cleavage is 1.53.

A24G U47A U96C: the self-cleavage was 0.

For U13C A124U A140G, the self-cleavage turned out to be 0.89.

Take U12G U29G A30G: the self-cleavage was 0.66.

As to U73A A92G U112C A138G, the self-cleavage was determined as 0.

U9C A30G A42G A107G: the self-cleavage was found to be 1.53.

Consider A43G G80U U81A A129U, for which the self-cleavage turned out to be 1.95.

For the variant C3U A30G U52C A140G, the self-cleavage was 1.38.

For A78G U102C A121G A141G, the self-cleavage was 0.57.

For U9A U39G U119C, the self-cleavage was 1.38.

For G41A U47A A57U A121G, the self-cleavage came to 0.12.

Take U15C G55C A59U G88A U112C A136U U143C: the self-cleavage turned out to be 0.02.

In the case of A22U A43C G55C A79G, the self-cleavage worked out at 0.

Turning to G72A A79G U132A A141G, the self-cleavage is 1.21.

Turning to A30U A59U G74A A78G, the self-cleavage came to 0.27.

With U14C C51A A79G U109A, the self-cleavage was 0.37.
